Common to all, as to test: Primary Screen for Target Class Profiling of Small Molecule Inhibitors of Methyltransferases
The target in test [1] is Glycine N-methyltransferase (Homo sapiens) (UniProt Q14749). Conditions: purified enzyme, MTase-Glo SAH luminescence; measured here: GNMT inhibition; at 40 µM; stronger effect = lower value. A digest of the protocol: (§1)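 Each enzyme was assayed with SAM and its substrate. SAH formation detected by MTase-Glo luminescence; single-point 40 uM screen[…].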
Test [2] deals with Guanidinoacetate N-methyltransferase (Homo sapiens) (UniProt Q14353). As to conditions: purified enzyme, MTase-Glo SAH luminescence; measured here: GAMT inhibition; at 40 µM; stronger effect = lower value. A digest of the protocol:
as §1

In test [3] the target is Histamine N-methyltransferase (Homo sapiens) (UniProt P50135). Conditions: purified enzyme, MTase-Glo SAH luminescence; measured here: HNMT inhibition; at 40 µM; stronger effect = lower value. Summed up: as §1
Test [4] has as its target Nicotinamide N-methyltransferase (Homo sapiens) (UniProt P40261). Conditions: purified enzyme, MTase-Glo SAH luminescence; measured here: NNMT inhibition; at 40 µM; stronger effect = lower value. Summed up: as §1
For test [5], the target named is Phenylethanolamine N-methyltransferase (Homo sapiens) (UniProt P11086). As to conditions: purified enzyme, MTase-Glo SAH luminescence; measured here: PNMT inhibition; at 40 µM; stronger effect = lower value. Summed up: as §1

Consider 31 compounds from PubChem BioAssay AID1745853 (National Center for Advancing Translational Sciences (NCATS), 2022).

“And” between values parts separate entries of the source, which are not always exact repeats. Equal values may be shown once. This is one part of the list. Shown are side measurements of this screen, not its main read-out; they come without a call.
% is scaled to controls: 0 for no effect and ±100 for the full control effect.

As for `CC(C)NC(=O)N1Cc2ccccc2-n2cccc2C1c1cccc(Cl)c1` (stereo not given), the activity change, negative = inhibition amounted to 11.5% in test [1]; 0.254% in test [2]; 6.04% in test [3]; 1.23% in test [4]; 7.43% in test [5].

With `CCC1c2cccn2-c2ccccc2CN1C(=O)Nc1ccccc1C` (stereo not given), the activity change, negative = inhibition was -3.23% in test [1]; 2.67% in test [2]; 0.647% in test [3]; -3.77% in test [4]; 2.53% in test [5].

For `COCCOCC(=O)N1CCC2(CC1)c1nccn1-c1ccccc1CN2CC(C)C`, the activity change, negative = inhibition is -2.08% in test [1]; -1.05% in test [2]; -4.63% in test [3]; -5.99% in test [4]; 0.857% in test [5].

With `CCC1c2cccn2-c2ccccc2CN1C(=O)Nc1ccc(OC)cc1` (stereo not given), the activity change, negative = inhibition in test [1] worked out at 5.54%; in test [2], 0.508%; in test [3] it was 5.43%; in test [4] it was 2.86%; in test [5], 9.87%.

Regarding `CCOc1ccc(C2c3cccn3-c3ccccc3CN2C(=O)Nc2ccc(OC)cc2)cc1` (stereo not given), the activity change, negative = inhibition was -2.47% in test [1]; 0% in test [2]; 5.01% in test [3]; 3.79% in test [4]; 3.92% in test [5].

`COC(=O)c1ccc(NC(=O)N2Cc3ccccc3-n3cccc3C2c2cccs2)cc1` (stereo not given): the activity change, negative = inhibition is 9.25% in test [1]; 0% in test [2]; 1.38% in test [3]; -0.374% in test [4]; 5.66% in test [5].

On to `O=C(Nc1ccc(F)c(Cl)c1)N1Cc2ccccc2-n2cccc2C1c1ccccc1` (stereo not given), for which the activity change, negative = inhibition is 2.7% in test [1]; 0% in test [2]; -3.99% in test [3]; -0.496% in test [4]; 2.98% in test [5].

As for `Cc1c(Cl)cccc1NC(=O)N1Cc2ccccc2-n2cccc2C1c1ccccc1` (stereo not given), the activity change, negative = inhibition turned out to be 10.2% in test [1]; 0% in test [2]; 8.41% in test [3]; 5.13% in test [4]; 8.09% in test [5].

`C[C@]12CC[C@H](OC3OC(CO)C(O)C(O)C3OC3OC(CO)C(O)C(O)C3O)C[C@@H]1CC[C@@H]1C2CC[C@]2(C)[C@@H](C3=CC(=O)OC3)CC[C@]12O` (stereo not given in full): the activity change, negative = inhibition was -3.77% in test [1]; -17.2% in test [2]; 4.16% in test [3]; -26.9% in test [4]; -1.96% in test [5].

As for `CN1CCC(NCC2(CO)C[C@@H](O)[C@@H](O)C2)CC1` (stereo not given in full), the activity change, negative = inhibition in test [1] is -1.4%; in test [2] it was -0.909%; in test [3], -3.04%; in test [4] it was -3.17%; in test [5], 0.421%.

On to `CN1CCN(c2nc3ccccc3nc2Cl)CC1`, for which the activity change, negative = inhibition was 0.58% in test [1]; 0.191% in test [2]; 10.9% in test [3]; -7.37% in test [4]; 6.96% in test [5].

Regarding `CCOC(=O)CNC(=O)N1Cc2ccccc2-n2cccc2C1c1ccc(SC)cc1` (stereo not given), the activity change, negative = inhibition in test [1] is -1.84%; in test [2], 1.71%; in test [3], 0.791%; in test [4], -3.96%; in test [5] it was 3.21%.

For `CCCCCOc1cc2c(cc1-c1cc(/C=C/C(=O)O)ccc1O)C(C)(C)CCC2(C)C`, the activity change, negative = inhibition is -10.5% in test [1]; -18.9% in test [2]; 7% in test [3]; -63.2% in test [4]; 2.04% in test [5].

Consider `Cn1cnc(S(=O)(=O)N2[C@H]3CC[C@@H]2c2cnc(-c4ccccc4)nc2C3)c1`, for which the activity change, negative = inhibition is -3.55% in test [1]; -6.25% in test [2]; -1.93% in test [3]; -4.27% in test [4]; 1.3% in test [5].

`CC(N)c1cccc(Cl)c1Cl` (stereo not given): the activity change, negative = inhibition in test [1] is -8.45%; in test [2], 4.62%; in test [3], -44.4%; in test [4], -6.16%; in test [5], -98.7%.

On to `O[C@@H]1CNC2Cc3c([nH]c4ccccc34)C1C2` (stereo not given in full), for which the activity change, negative = inhibition is -6.96% in test [1]; -2.27% in test [2]; -3.75% in test [3]; -1.24% in test [4]; -12.5% in test [5].

Consider `CC[C@H]1C2CC3[C@@H]4N(C)c5ccccc5[C@]45C[C@@H]([C@H]2[C@H]5O)N3[C@H]1O`, for which the activity change, negative = inhibition was 2.56% in test [1]; 3.86% in test [2]; 7.26% in test [3]; -12.1% in test [4]; 3.41% in test [5].

For the compound `Cc1ccc(NC(=O)N2Cc3ccccc3-n3cccc3C2c2ccccc2Cl)cc1C` (stereo not given), the activity change, negative = inhibition stood at 12.2% in test [1]; 0% in test [2]; 5.29% in test [3]; 0.751% in test [4]; 6.14% in test [5].

For the compound `O=C(NCc1ccc(F)cc1)N1Cc2ccccc2-n2cccc2C1c1cccc(Cl)c1` (stereo not given), the activity change, negative = inhibition in test [1] is 9.79%; in test [2] it was 4.62%; in test [3], 1.07%; in test [4] it was -3.19%; in test [5], 1.53%.

Turning to `C[C@]12CC[C@@H](O)C[C@H]1CC[C@@H]1[C@@H]2CC[C@]2(C)C(=O)CC[C@@H]12`, the activity change, negative = inhibition was 6.07% in test [1]; 11% in test [2]; 6.8% in test [3]; -9.2% in test [4]; 0.803% in test [5].

As to `CCOCCCNC(=O)N1Cc2ccccc2-n2cccc2C1c1ccc(Cl)cc1` (stereo not given), the activity change, negative = inhibition in test [1] is -2.04%; in test [2], 4.07%; in test [3] it was 7.71%; in test [4], -0.56%; in test [5], 9.1%.

With `CCC1(N2CCN(C(=O)COc3ccc(Cl)cc3C)CC2)CCN(C(=O)NC)C1` (stereo not given), the activity change, negative = inhibition in test [1] is -5.62%; in test [2], -0.224%; in test [3], -3.94%; in test [4], -6.95%; in test [5], 10.9%.

Turning to `CCC(C)C1NC(=O)C(C(C)=O)=C1O` (stereo not given), the activity change, negative = inhibition in test [1] was 0%; in test [2], -7.5%; in test [3] it was -4.01%; in test [4], -20.4%; in test [5] it was -7.6%.

In the case of `COc1ccc(NC(=O)N2Cc3ccccc3-n3cccc3C2c2ccc(C)cc2)c(OC)c1` (stereo not given), the activity change, negative = inhibition in test [1] amounted to 8.94%; in test [2], 5.91%; in test [3], 8.52%; in test [4], 1.43%; in test [5], 5.46%.

With `CC(=O)NCCc1c[nH]c2ccccc12`, the activity change, negative = inhibition is -0.915% and 0.677% in test [1]; 0.938% and 8.46% in test [2]; 5.66% and 8.3% in test [3]; -14.5% and -6.87% in test [4]; 3.62% and 0.552% in test [5].

`C[C@@H]1[C@H](O)[C@@H](C)/C=C/C=C/CC/C=C/C=C/C=C/C=C/[C@H](O[C@H]2O[C@@H](C)[C@H](O)[C@@H](N)[C@H]2O)C[C@@H]2O[C@](O)(C[C@@H](O)[C@H](O)CC[C@@H](O)C[C@@H](O)C[C@@H](O)CC(=O)O[C@H]1C)C[C@H](O)[C@H]2C(=O)O`: the activity change, negative = inhibition in test [1] was -2.99%; in test [2], -8.5%; in test [3], 6.72%; in test [4], -12%; in test [5], -0.424%.

As for `COc1ccc(NC(=O)N2Cc3ccccc3-n3cccc3C2C(C)C)cc1OC` (stereo not given), the activity change, negative = inhibition in test [1] was -2.16%; in test [2] it was 0.369%; in test [3], 3.81%; in test [4], 7.43%; in test [5] it was 6%.

Consider `COc1ccc(C2c3cccn3-c3ccccc3CN2C(=O)Nc2ccc(C)cc2C)cc1` (stereo not given), for which the activity change, negative = inhibition in test [1] is 7.79%; in test [2], 1.22%; in test [3], -1.4%; in test [4], -4.61%; in test [5], 0.118%.

Turning to `CCC1C2CC3C4N(C)c5ccccc5C45CC(C2C5O)N3C1O` (stereo not given), the activity change, negative = inhibition is 3.08% in test [1]; 4.46% in test [2]; 8.72% in test [3]; -10.1% in test [4]; 3.91% in test [5].

Take `O=C(O)C1=NOC2CN(Cc3cncs3)CC12` (stereo not given): the activity change, negative = inhibition was -8.74% in test [1]; -10.5% in test [2]; -5.24% in test [3]; -16% in test [4]; -11.3% in test [5].

Consider `Nc1ccc(CCN2CCN(c3cccc(C(F)(F)F)c3)CC2)cc1`, for which the activity change, negative = inhibition in test [1] was -2.62%; in test [2], 10.6%; in test [3], 8.83%; in test [4], -11.8%; in test [5], -2.25%.
